Experimental data published in patent KR20220059924A (dated 2022).
Where a chain is given by its changes, count along the chain named. Blank lines part the entries; values can stand above or below the binder they belong to.

Columns and labels:
마우스 Tie2 단백질 = biological target: T1, 마우스 Tie2 단백질 (mouse, UniProt Q02858 23-1122); assay: flow cytometry, HEK293T cells transfected with mouse Tie2
T1 construct: whole, on cells; also called mouse Tie2
T1 sequence (looked up): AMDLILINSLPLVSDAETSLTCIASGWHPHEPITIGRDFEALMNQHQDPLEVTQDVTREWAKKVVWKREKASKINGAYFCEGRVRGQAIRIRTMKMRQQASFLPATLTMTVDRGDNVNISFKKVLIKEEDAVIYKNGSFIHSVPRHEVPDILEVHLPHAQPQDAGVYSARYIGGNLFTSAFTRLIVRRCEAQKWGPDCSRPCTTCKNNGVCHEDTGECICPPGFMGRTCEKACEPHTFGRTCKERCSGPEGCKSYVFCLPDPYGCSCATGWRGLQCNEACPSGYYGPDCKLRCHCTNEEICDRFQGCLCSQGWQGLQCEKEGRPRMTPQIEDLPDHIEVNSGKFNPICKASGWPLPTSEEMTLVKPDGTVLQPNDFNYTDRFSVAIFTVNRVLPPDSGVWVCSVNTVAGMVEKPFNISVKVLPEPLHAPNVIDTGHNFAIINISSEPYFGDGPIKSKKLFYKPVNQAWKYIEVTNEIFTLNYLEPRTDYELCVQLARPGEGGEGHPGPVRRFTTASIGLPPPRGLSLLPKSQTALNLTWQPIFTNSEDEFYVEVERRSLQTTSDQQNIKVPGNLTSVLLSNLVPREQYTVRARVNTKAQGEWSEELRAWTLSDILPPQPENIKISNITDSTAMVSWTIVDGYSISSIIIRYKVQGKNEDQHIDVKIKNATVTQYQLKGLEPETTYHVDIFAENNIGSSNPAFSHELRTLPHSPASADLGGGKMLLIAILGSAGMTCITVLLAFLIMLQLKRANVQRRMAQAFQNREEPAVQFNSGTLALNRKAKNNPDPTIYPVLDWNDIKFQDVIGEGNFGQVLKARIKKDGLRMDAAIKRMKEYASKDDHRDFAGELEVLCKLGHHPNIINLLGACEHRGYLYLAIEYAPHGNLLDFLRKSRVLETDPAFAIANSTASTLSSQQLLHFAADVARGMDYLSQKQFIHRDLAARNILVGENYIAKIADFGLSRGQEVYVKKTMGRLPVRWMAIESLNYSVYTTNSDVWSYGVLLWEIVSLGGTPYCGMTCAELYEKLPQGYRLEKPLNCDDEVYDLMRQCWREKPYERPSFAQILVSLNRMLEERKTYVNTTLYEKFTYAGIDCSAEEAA

랫 Tie2 단백질 = biological target: T2, 랫 Tie2 단백질 (rat, UniProt A0ABK0L6J5 19-1116); assay: flow cytometry, HEK293T cells transfected with rat Tie2
T2 construct: whole, on cells; also called rat Tie2
T2 sequence: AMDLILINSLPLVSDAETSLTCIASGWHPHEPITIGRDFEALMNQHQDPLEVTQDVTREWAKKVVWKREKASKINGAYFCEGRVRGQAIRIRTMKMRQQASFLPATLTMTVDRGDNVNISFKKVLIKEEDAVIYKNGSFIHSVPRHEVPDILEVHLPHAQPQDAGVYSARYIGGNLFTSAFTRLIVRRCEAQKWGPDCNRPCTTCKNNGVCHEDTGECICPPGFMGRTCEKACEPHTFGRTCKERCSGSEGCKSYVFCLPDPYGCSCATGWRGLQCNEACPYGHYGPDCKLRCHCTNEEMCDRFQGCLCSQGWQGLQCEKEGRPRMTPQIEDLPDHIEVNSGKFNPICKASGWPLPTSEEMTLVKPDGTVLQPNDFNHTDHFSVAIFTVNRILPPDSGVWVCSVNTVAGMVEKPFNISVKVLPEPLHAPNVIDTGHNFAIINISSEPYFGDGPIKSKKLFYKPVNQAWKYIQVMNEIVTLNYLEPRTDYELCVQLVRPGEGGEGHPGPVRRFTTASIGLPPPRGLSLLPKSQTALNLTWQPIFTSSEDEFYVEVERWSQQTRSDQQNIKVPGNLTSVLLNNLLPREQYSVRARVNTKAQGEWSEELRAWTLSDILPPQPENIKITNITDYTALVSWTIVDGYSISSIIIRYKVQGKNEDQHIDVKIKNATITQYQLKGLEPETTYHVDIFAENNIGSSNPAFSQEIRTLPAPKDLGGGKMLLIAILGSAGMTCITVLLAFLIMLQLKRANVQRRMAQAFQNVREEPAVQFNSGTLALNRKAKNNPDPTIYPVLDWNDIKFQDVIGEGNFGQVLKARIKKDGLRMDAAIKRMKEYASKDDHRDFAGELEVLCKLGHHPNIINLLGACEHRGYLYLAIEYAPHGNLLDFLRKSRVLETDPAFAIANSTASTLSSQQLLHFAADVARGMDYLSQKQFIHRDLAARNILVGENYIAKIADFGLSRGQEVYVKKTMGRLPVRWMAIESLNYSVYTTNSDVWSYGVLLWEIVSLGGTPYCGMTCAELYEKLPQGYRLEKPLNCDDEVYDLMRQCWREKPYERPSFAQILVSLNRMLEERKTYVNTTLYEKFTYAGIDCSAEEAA

개 Tie2 단백질 = biological target: T3, 개 Tie2 단백질 (dog, UniProt A0A8I3S0B4 27-1128); assay: flow cytometry, HEK293T cells transfected with dog Tie2
T3 construct: whole, on cells; also called dog Tie2
T3 sequence: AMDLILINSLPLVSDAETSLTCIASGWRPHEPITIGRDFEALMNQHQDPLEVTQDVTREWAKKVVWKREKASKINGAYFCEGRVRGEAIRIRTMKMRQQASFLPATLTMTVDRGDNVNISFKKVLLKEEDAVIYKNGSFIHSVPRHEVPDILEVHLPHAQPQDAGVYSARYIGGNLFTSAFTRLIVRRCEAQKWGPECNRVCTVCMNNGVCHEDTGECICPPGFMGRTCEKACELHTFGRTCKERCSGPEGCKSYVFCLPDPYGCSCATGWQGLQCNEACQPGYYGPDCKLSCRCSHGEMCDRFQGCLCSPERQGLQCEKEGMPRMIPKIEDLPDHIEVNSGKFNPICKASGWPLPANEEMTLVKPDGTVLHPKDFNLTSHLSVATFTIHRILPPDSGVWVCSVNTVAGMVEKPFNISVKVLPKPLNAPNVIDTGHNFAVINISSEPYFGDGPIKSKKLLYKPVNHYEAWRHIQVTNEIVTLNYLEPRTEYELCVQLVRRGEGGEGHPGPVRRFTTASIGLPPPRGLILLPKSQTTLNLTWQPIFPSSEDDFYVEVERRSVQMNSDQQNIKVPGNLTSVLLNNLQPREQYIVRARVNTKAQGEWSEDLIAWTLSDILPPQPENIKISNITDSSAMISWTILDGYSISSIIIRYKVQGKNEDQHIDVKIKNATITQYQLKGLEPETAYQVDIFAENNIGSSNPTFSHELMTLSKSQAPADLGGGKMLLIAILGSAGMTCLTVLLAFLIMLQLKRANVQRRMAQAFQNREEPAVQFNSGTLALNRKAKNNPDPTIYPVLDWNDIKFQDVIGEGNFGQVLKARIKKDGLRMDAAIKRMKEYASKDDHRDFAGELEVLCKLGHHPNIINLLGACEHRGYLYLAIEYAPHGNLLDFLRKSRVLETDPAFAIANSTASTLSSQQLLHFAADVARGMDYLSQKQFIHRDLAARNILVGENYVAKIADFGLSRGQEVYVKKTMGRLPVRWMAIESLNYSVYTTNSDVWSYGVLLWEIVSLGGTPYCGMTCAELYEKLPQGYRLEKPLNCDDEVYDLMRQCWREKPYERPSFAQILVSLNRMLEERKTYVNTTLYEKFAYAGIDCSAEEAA

binding result (마우스 Tie2 단백질): no binding (tested: 5ug/ml) | binding result (랫 Tie2 단백질): no binding (tested: 5ug/ml) | binding result (개 Tie2 단백질): no binding (tested: 5ug/ml)
B1: Ang1mab4(H1V12A) (antibody, human IgG4 S228P, kappa)
heavy: QVQLVQSGGGVVQPGRSLRLSCAASGLTFSNYAMHWARQAPGKGLEWVAVISYDGENKYYADSVKGRFTISRDNSKNMLQLQMNRLRSEDTAVYYCATPKGGALEIWGQGTVITVSSASTKGPSVFPLAPCSRSTSESTAALGCLVKDYFPEPVTVSWNSGALTSGVHTFPAVLQSSGLYSLSSVVTVPSSSLGTKTYTCNVDHKPSNTKVDKRV[sequence of human IgG4 Fc with S228P (EU numbers) omitted]
light: DIQMTQSPDSLAVSLGERATINCKSSQSVLYSSNNKNYLAWYQQKPGQPPNLLMYWASTRESGVPDRFSGSGSGTDFTLTISSLQAEDVAVYYCQQYYSAPITFGQGTRLEIKRTVAAPSVFIFPPSDEQLKSGTASVVCLLNNFYPREAKVQWKVDNALQSGNSQESVTEQDSKDSTYSLSSTLTLSKADYEKHKVYACEVTHQGLSSPVTKSFNRGEC
notes: Variant of Ang1mab4; frameworks and constant regions from Ang1mab4; also called 변이 항체

binding result (마우스 Tie2 단백질): no binding (tested: 5ug/ml) | binding result (랫 Tie2 단백질): no binding (tested: 5ug/ml) | binding result (개 Tie2 단백질): no binding (tested: 5ug/ml)
B2: Ang1mab4(L1S07A) (antibody, human IgG4 S228P, kappa)
heavy: B1 heavy with A37V
light: B1 light with S33A
notes: as for B1

binding result (마우스 Tie2 단백질): no binding (tested: 5ug/ml) | binding result (랫 Tie2 단백질): no binding (tested: 5ug/ml) | binding result (개 Tie2 단백질): no binding (tested: 5ug/ml)
B3: Ang1mab4(L1Q01A) (antibody, human IgG4 S228P, kappa)
heavy: B1 heavy with A37V
light: B1 light with Q27A
notes: as for B1

binding result (마우스 Tie2 단백질): no binding (tested: 5ug/ml) | binding result (랫 Tie2 단백질): no binding (tested: 5ug/ml) | binding result (개 Tie2 단백질): no binding (tested: 5ug/ml)
B4: Ang1mab4(L1V03A) (antibody, human IgG4 S228P, kappa)
heavy: B1 heavy with A37V
light: B1 light with V29A
notes: as for B1

binding result (마우스 Tie2 단백질): no binding (tested: 5ug/ml) | binding result (랫 Tie2 단백질): no binding (tested: 5ug/ml) | binding result (개 Tie2 단백질): no binding (tested: 5ug/ml)
B5: Ang1mab4(L1Y05F) (antibody, human IgG4 S228P, kappa)
heavy: B1 heavy with A37V
light: B1 light with Y31F
notes: as for B1
